# The list shows a part of the results.
# B1: PNA (Arachis hypogaea), P02872 (protein)
# chain: MKPFCVFLTFFLLLAASSKKVDSAETVSFNFNSFSEGNPAINFQGDVTVLSNGNIQLTNLNKVNSVGRVLYAMPVRIWSSATGNVASFLTSFSFEMKDIKDYDPADGIIFFIAPEDTQIPAGSIGGGTLGVSDTKGAGHFVGVEFDTYSNSEYNDPPTDHVGIDVNSVDSVKTVPWNSVSGAVVKVTVIYDSSTKTLSVAVTNDNGDITTIAQVVDLKAKLPERVKFGFSASGSLGGRQIHLIRSWSFTSTLITTTRRSIDNNEKKIMNMASA
# Key:
# Assay in all cases: glycan array binding signal (z-score within array); higher = stronger binding
# Conditions in all cases: glycan notation: IUPAC condensed, linker removed
# [1] = target: Neu5Ac(a2-3)Gal6S(b1-4)[Fuc(a1-3)]GlcNAc6S(b1-3)Gal(b1-4)Glc
# Method in brief: (§1)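 Negative Z-scores can be read as non-binding. The Z-score is calculated within each array and then averaged across arrays of one protein sequence at different concentrations or buffers and across linkers. Arrays, 3228 in all, were curated from the Consortium for Functional Glycomics database and kept only where the protein sequence was available.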
# Neu5Ac(a2-3)GalNAc = target: Neu5Ac(a2-3)GalNAc
# Method in brief: as §1
# [2] = target: Neu5Ac(a2-3)GalNAc(b1-4)GlcNAc
# Method in brief: as §1
# [3] = target: Neu5Ac(a2-3)GalNBz(b1-4)GlcNAc
# Method in brief: as §1
# [4] = target: Neu5Ac(a2-3)[GalNAc(b1-4)]Gal(b1-3)Gal
# Method in brief: as §1
# [5] = target: Neu5Ac(a2-3)[GalNAc(b1-4)]Gal(b1-3)GalNAc(b1-4)[Neu5Ac(a2-3)]Gal(b1-4)Glc
# Method in brief: as §1
# [6] = target: Neu5Ac(a2-3)[GalNAc(b1-4)]Gal(b1-3)Glc
# Method in brief: as §1
# [7] = target: Neu5Ac(a2-3)[GalNAc(b1-4)]Gal(b1-4)Glc
# Method in brief: as §1
# [8] = target: Neu5Ac(a2-3)[GalNAc(b1-4)]Gal(b1-4)GlcNAc
# Method in brief: as §1
# [9] = target: Neu5Ac(a2-3)[GalNAc(b1-4)]Gal(b1-4)GlcNAc(b1-3)GalNAc
# Method in brief: as §1
# [10] = target: Neu5Ac(a2-3)[GalNAc(b1-6)]Gal(b1-4)Glc
# Method in brief: as §1
# [11] = target: Neu5Ac(a2-3)[Neu5Ac(a2-6)]GalNAc
# Method in brief: as §1
# Neu5Ac(a2-6)Gal = target: Neu5Ac(a2-6)Gal
# Method in brief: as §1
# [12] = target: Neu5Ac(a2-6)Gal(b1-3)GalNAc(b1-4)Gal(b1-4)Glc
# Method in brief: as §1
# [13] = target: Neu5Ac(a2-6)Gal(b1-3)GlcNAc(b1-3)[Fuc(a1-3)[Gal(b1-4)]GlcNAc(b1-6)]Gal(b1-4)Glc
# Method in brief: as §1
# [14] = target: Neu5Ac(a2-6)Gal(b1-3)GlcNAc(b1-3)[Gal(b1-4)GlcNAc(b1-6)]Gal(b1-4)Glc
# Method in brief: as §1
# [15] = target: Neu5Ac(a2-6)Gal(b1-3)[Neu5Ac(a2-6)]GalNAc(b1-4)Gal(b1-4)Glc
# Method in brief: as §1
# Neu5Ac(a2-6)Gal(b1-4)Glc = target: Neu5Ac(a2-6)Gal(b1-4)Glc
# Method in brief: as §1
# [16] = target: Neu5Ac(a2-6)Gal(b1-4)GlcNAc
# Method in brief: as §1
# [17] = target: Neu5Ac(a2-6)Gal(b1-4)GlcNAc(b1-2)Man
# Method in brief: as §1
# [18] = target: Neu5Ac(a2-6)Gal(b1-4)GlcNAc(b1-2)Man(a1-3)Man(b1-4)GlcNAc(b1-4)GlcNAc
# Method in brief: as §1
# [19] = target: Neu5Ac(a2-6)Gal(b1-4)GlcNAc(b1-2)Man(a1-3)[Gal(b1-4)GlcNAc(b1-2)Man(a1-6)]Man(b1-4)GlcNAc(b1-4)GlcNAc
# Method in brief: as §1
# [20] = target: Neu5Ac(a2-6)Gal(b1-4)GlcNAc(b1-2)Man(a1-3)[GlcNAc(b1-2)Man(a1-6)]Man(b1-4)GlcNAc(b1-4)GlcNAc
# Method in brief: as §1
# [21] = target: Neu5Ac(a2-6)Gal(b1-4)GlcNAc(b1-2)Man(a1-3)[GlcNAc(b1-2)Man(b1-4)GlcNAc(b1-2)Man(a1-6)]Man(b1-4)GlcNAc(b1-4)GlcNAc
# Method in brief: as §1
# [22] = target: Neu5Ac(a2-6)Gal(b1-4)GlcNAc(b1-2)Man(a1-3)[GlcNAc(b1-4)][Neu5Ac(a2-6)Gal(b1-4)GlcNAc(b1-2)Man(a1-6)]Man(b1-4)GlcNAc(b1-4)GlcNAc
# Method in brief: as §1
# [23] = target: Neu5Ac(a2-6)Gal(b1-4)GlcNAc(b1-2)Man(a1-3)[Man(a1-6)]Man(b1-4)GlcNAc(b1-4)GlcNAc
# Method in brief: as §1
# [24] = target: Neu5Ac(a2-6)Gal(b1-4)GlcNAc(b1-2)Man(a1-3)[Neu5Ac(a2-3)Gal(b1-4)GlcNAc(b1-2)Man(a1-6)]Man(b1-4)GlcNAc(b1-4)GlcNAc
# Method in brief: as §1
# [25] = target: Neu5Ac(a2-6)Gal(b1-4)GlcNAc(b1-2)Man(a1-3)[Neu5Ac(a2-6)Gal(b1-4)GlcNAc(b1-2)Man(a1-6)]Man(b1-4)GlcNAc(b1-4)GlcNAc
# Method in brief: as §1
# [26] = target: Neu5Ac(a2-6)Gal(b1-4)GlcNAc(b1-2)Man(a1-3)[Neu5Ac(a2-6)Gal(b1-4)GlcNAc(b1-2)Man(a1-6)]Man(b1-4)GlcNAc(b1-4)[Fuc(a1-6)]GlcNAc
# Method in brief: as §1
# [27] = target: Neu5Ac(a2-6)Gal(b1-4)GlcNAc(b1-2)Man(a1-3)[Neu5Gc(a2-6)Gal(b1-4)GlcNAc(b1-2)Man(a1-6)]Man(b1-4)GlcNAc(b1-4)GlcNAc
# Method in brief: as §1
# [28] = target: Neu5Ac(a2-6)Gal(b1-4)GlcNAc(b1-2)Man(a1-6)Man(b1-4)GlcNAc(b1-4)GlcNAc
# Method in brief: as §1
# [29] = target: Neu5Ac(a2-6)Gal(b1-4)GlcNAc(b1-2)Man(a1-6)[Gal(b1-4)GlcNAc(b1-2)Man(a1-3)]Man(b1-4)GlcNAc(b1-4)GlcNAc
# Method in brief: as §1
# [30] = target: Neu5Ac(a2-6)Gal(b1-4)GlcNAc(b1-2)Man(a1-6)[GlcNAc(b1-2)Man(a1-3)]Man(b1-4)GlcNAc(b1-4)GlcNAc
# Method in brief: as §1
# [31] = target: Neu5Ac(a2-6)Gal(b1-4)GlcNAc(b1-2)Man(a1-6)[Man(a1-3)]Man(b1-4)GlcNAc(b1-4)GlcNAc
# Method in brief: as §1
# [32] = target: Neu5Ac(a2-6)Gal(b1-4)GlcNAc(b1-2)[Neu5Ac(a2-3)Gal(b1-4)GlcNAc(b1-4)]Man(a1-3)[Neu5Ac(a2-3)Gal(b1-4)GlcNAc(b1-2)Man(a1-6)]Man(b1-4)GlcNAc(b1-4)GlcNAc
# Method in brief: as §1
# [33] = target: Neu5Ac(a2-6)Gal(b1-4)GlcNAc(b1-2)[Neu5Ac(a2-6)Gal(b1-4)GlcNAc(b1-4)]Man(a1-3)[GlcNAc(b1-4)][Neu5Ac(a2-6)Gal(b1-4)GlcNAc(b1-2)[Neu5Ac(a2-6)Gal(b1-4)GlcNAc(b1-6)]Man(a1-6)]Man(b1-4)GlcNAc(b1-4)GlcNAc
# Method in brief: as §1
# [34] = target: Neu5Ac(a2-6)Gal(b1-4)GlcNAc(b1-2)[Neu5Ac(a2-6)Gal(b1-4)GlcNAc(b1-4)]Man(a1-3)[GlcNAc(b1-4)][Neu5Ac(a2-6)Gal(b1-4)GlcNAc(b1-4)Man(a1-6)]Man(b1-4)GlcNAc(b1-4)GlcNAc
# Method in brief: as §1
# [35] = target: Neu5Ac(a2-6)Gal(b1-4)GlcNAc(b1-2)[Neu5Ac(a2-6)Gal(b1-4)GlcNAc(b1-6)]Man(a1-6)[Neu5Ac(a2-6)Gal(b1-4)GlcNAc(b1-2)Man(a1-3)][GlcNAc(b1-4)]Man(b1-4)GlcNAc(b1-4)GlcNAc
# Method in brief: as §1
# [36] = target: Neu5Ac(a2-6)Gal(b1-4)GlcNAc(b1-3)Gal(b1-3)GlcNAc
# Method in brief: as §1
# [37] = target: Neu5Ac(a2-6)Gal(b1-4)GlcNAc(b1-3)Gal(b1-4)Glc
# Method in brief: as §1
# [38] = target: Neu5Ac(a2-6)Gal(b1-4)GlcNAc(b1-3)Gal(b1-4)GlcNAc
# Method in brief: as §1
# [39] = target: Neu5Ac(a2-6)Gal(b1-4)GlcNAc(b1-3)Gal(b1-4)GlcNAc(b1-2)Man(a1-3)[Neu5Ac(a2-6)Gal(b1-4)GlcNAc(b1-3)Gal(b1-4)GlcNAc(b1-2)Man(a1-6)]GalNAc
# Method in brief: as §1
# [40] = target: Neu5Ac(a2-6)Gal(b1-4)GlcNAc(b1-3)Gal(b1-4)GlcNAc(b1-3)Gal(b1-4)GlcNAc
# Method in brief: as §1
# [41] = target: Neu5Ac(a2-6)Gal(b1-4)GlcNAc(b1-3)Gal(b1-4)GlcNAc(b1-3)Gal(b1-4)GlcNAc(b1-2)Man(a1-3)[Neu5Ac(a2-6)Gal(b1-4)GlcNAc(b1-3)Gal(b1-4)GlcNAc(b1-3)Gal(b1-4)GlcNAc(b1-2)Man(a1-6)]GalNAc
# Method in brief: as §1
# [42] = target: Neu5Ac(a2-6)Gal(b1-4)GlcNAc(b1-3)Gal(b1-4)GlcNAc(b1-3)GalNAc
# Method in brief: as §1
binder,measurement,setting,value
B1,glycan array binding signal (z-score),[1],-0.195
same,glycan array binding signal (z-score),Neu5Ac(a2-3)GalNAc,-0.212
same,glycan array binding signal (z-score),[2],-0.196
same,glycan array binding signal (z-score),[3],-0.195
same,glycan array binding signal (z-score),[4],-0.195
same,glycan array binding signal (z-score),[5],-0.195
same,glycan array binding signal (z-score),[6],-0.195
same,glycan array binding signal (z-score),[7],-0.162
same,glycan array binding signal (z-score),[8],-0.138
same,glycan array binding signal (z-score),[9],-0.066
same,glycan array binding signal (z-score),[10],-0.195
same,glycan array binding signal (z-score),[11],-0.148
same,glycan array binding signal (z-score),Neu5Ac(a2-6)Gal,-0.161
same,glycan array binding signal (z-score),[12],-0.195
same,glycan array binding signal (z-score),[13],-0.195
same,glycan array binding signal (z-score),[14],-0.151
same,glycan array binding signal (z-score),[15],-0.195
same,glycan array binding signal (z-score),Neu5Ac(a2-6)Gal(b1-4)Glc,-0.166
same,glycan array binding signal (z-score),[16],-0.191
same,glycan array binding signal (z-score),[17],-0.239
same,glycan array binding signal (z-score),[18],-0.181
same,glycan array binding signal (z-score),[19],-0.176
same,glycan array binding signal (z-score),[20],-0.199
same,glycan array binding signal (z-score),[21],-0.193
same,glycan array binding signal (z-score),[22],-0.394
same,glycan array binding signal (z-score),[23],-0.157
same,glycan array binding signal (z-score),[24],-0.054
same,glycan array binding signal (z-score),[25],-0.134
same,glycan array binding signal (z-score),[26],-0.21
same,glycan array binding signal (z-score),[27],-0.195
same,glycan array binding signal (z-score),[28],-0.197
same,glycan array binding signal (z-score),[29],-0.226
same,glycan array binding signal (z-score),[30],-0.155
same,glycan array binding signal (z-score),[31],-0.19
same,glycan array binding signal (z-score),[32],-0.195
same,glycan array binding signal (z-score),[33],-0.219
same,glycan array binding signal (z-score),[34],-0.265
same,glycan array binding signal (z-score),[35],-0.364
same,glycan array binding signal (z-score),[36],-0.109
same,glycan array binding signal (z-score),[37],-0.195
same,glycan array binding signal (z-score),[38],-0.084
same,glycan array binding signal (z-score),[39],-0.083
same,glycan array binding signal (z-score),[40],-0.114
same,glycan array binding signal (z-score),[41],0.362
same,glycan array binding signal (z-score),[42],-0.158

# From the supplement of paper PMC8728848
